Results published in PubChem BioAssay (NCI).
Where “and” joins values, the source holds several entries; their conditions need not be identical. Identical values can stand only once.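 Protocol summary: plate cells (96-well), add compound at 5 concentrations, incubate 48 h, interpolate endpoints linearly. The concentration for 50% growth inhibition is given as GI50. TGI: concentration producing complete growth inhibition.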

system: NCI-H322M lung; experiment: DTP human tumour cell line panel, 48 h

| SMILES | TGI [µM] | GI50 |
| --- | --- | --- |
| NC(=O)/N=C1/CCC2C3CCCC2C13 | > 100 |  |
| CO/N=C(\C)c1ccc(Nc2cc(-c3ccccc3)nc3ccc(OC)cc23)cc1 | 5.41 | 1.83 µM |
| CCN(CC)CC(O)CNc1c2ccc([N+](=O)[O-])cc2nc2cc(OC)c(OC)cc12 (centres undefined) | 0.801 | 0.249 µM |
| CC(C)NC(=O)N(Nc1ccccc1)C(C)(C)C | > 100 |  |
| Nc1nnnn1CCO | > 100 |  |
| C[C@@]12CCC[C@@](C)(C(=O)O)C1CC[C@]13C[C@@](O)(CO)[C@](O)(CCC12)C3 (some centres undefined) | > 100 | > 100 µM |
| Oc1ccc2ccccc2c1N=Nc1ccsc1 | > 100 |  |
| O=c1ncc(F)cn1C1OC(CO)C(O)C1O (centres undefined) | > 100 |  |
| N#CC(Cc1ccccc1)N(CCC1=CCCCC1)Cc1ccccc1 (centres undefined) | > 100 |  |
| N#Cc1c(N2CCC(O)C2)c2ccccc2n2c1nc1ccccc12 (centres undefined) | > 100 |  |
| COc1cc(N(C)C)c(OC)cc1/C=C\c1ccnc2ccccc12 | > 10 |  |
| OC(c1ccc(C(F)(F)F)cc1)C(F)(F)c1nc2ccccc2o1 (centres undefined) | > 100 |  |
| Cc1c2c(c(O)c3c(O)cccc13)C(=O)C1(O)C(O)=C(C(=O)NCNc3ccc(C(N)=O)cn3)C(=O)C(N(C)C)C1C2 (centres undefined) | > 100 |  |
| CN(C)C(c1ccccc1)C1COC2Cc3ccccc3C1O2 (centres undefined) | > 100 |  |
| C/C=C(\C)C(O)C(C)C(O)C/C=C(C)/C=C(\C)C/C(C)=C/C/C=C(\C)C(O)C(C)c1ccc(CCC)c(=O)o1 (centres undefined) | 46.9 |  |
| C/C(CC(O)(/C=N/O)c1ccccc1)=N/O (centres undefined) | > 100 |  |
| O=C(Nc1ccc2[nH]c(C(=O)N3CC(CCl)c4c3cc([N+](=O)[O-])c3ccccc43)cc2c1)Nc1ccc2[nH]c(C(=O)N3CC(CCl)c4c3cc([N+](=O)[O-])c3ccccc43)cc2c1 (centres undefined) | > 100 |  |
| COc1ccc(CCCNC(=O)c2cc(OC)c(OC)cc2CCO)cc1OC | > 100 |  |
| CC(C)([NH-])CO.CC(C)([NH-])CO.[Cl][Cd][Cl] | > 100 | > 100 µM |
| CC1SCc2nc3ccccc3n21 (centres undefined) | > 100 |  |
| COC(=O)c1cc(O)c2cc3c(cc2c1-c1cc(OC)c(OC)c(OC)c1)OCO3 | > 100 | 4.34 µM |
| C[As](C)SCC(COC(=O)C(Cl)c1ccccc1)OC(=O)C(Cl)c1ccccc1 (centres undefined) | 16.7 | 4.4 µM |
| CC(=O)Nc1c(C)cc2c(nc3n2CCC3OC(C)=O)c1[N+](=O)[O-] (centres undefined) | > 100 |  |
| COc1ccc(N2C(=O)C3c4[nH]c5ccc(Br)cc5c4C4CCC(C(C)(C)C)CC4C3C2=O)cc1 (centres undefined) | > 100 |  |
| NC(Cc1ccc(N(CCCl)CCCl)cc1)C(=O)NC(CCC(=O)O)C(=O)O (centres undefined) | > 100 |  |

| SMILES | TGI [µM] | GI50 |
| --- | --- | --- |
| COC(=O)c1cccn1C(=O)n1cccc1 | > 100 |  |
| COc1cc(C(=O)N2CCN(c3ncnc4ccccc34)CC2)c(N)cc1OCc1ccccc1 | 45.7 | 17.7 µM |
| NCCOCCOCCNc1nc(-c2ccccc2)nc(N2CCN(c3ccccn3)CC2)n1 | 30.5 | 16.4 µM |
| COC(=O)C(C(=O)OC)C1CCCC(=O)C1 (centres undefined) | > 100 |  |
| CCOc1ccc(N/C(=C(/C(Cl)=C(/Cl)N2CCCCC2)[N+](=O)[O-])n2nnc3ccccc32)cc1 | 33.2 |  |
| O=C(c1ccccc1)C1OC12C(=O)Nc1c(Cl)cc(Cl)cc12 (centres undefined) | > 100 |  |
| O=c1cc(-c2cccc3c2Sc2ccccc2S3)oc(N2CCOCC2)c1 | 29.5 | 13.7 µM |
| O=C(CN1CCOCC1)c1ccc2c(c1)oc(=O)n2CCN1CCOCC1 | > 100 |  |
| O=c1[nH]nc(-c2ccccc2)n1/N=C/c1cccs1 | > 100 |  |
| C/C1=C/C(=O)O[C@@H]2C[C@@H](CC[C@H](C)/C=C\C=C\CC1)O[C@@](O)([C@@H]1CSC(=O)N1)C2 | > 10 |  |
| CCOC(=O)C1(C(=O)OCC)OC(C)=NC1(C(=O)OC)C(=O)OC | > 100 |  |
| COc1cc(NCCC2CCCCN2)c2ncccc2c1 (centres undefined) | > 100 |  |
| CCOC(=O)C1=NN(c2ccc([N+](=O)[O-])cc2)[C@@]2(C)C[C@]3(c4ccccc4)N(c4ccc([N+](=O)[O-])cc4)N=C(C(=O)OCC)N3c3ccccc3N12 | > 100 |  |
| Cc1cccc2c1c(=O)c1c(O)c3c(cc1n2C)OC(C)(C)C=C3 | > 10 |  |
| COc1ccc(/C=C2\CCS(=O)(=O)c3ccccc3C2=O)cc1 | 63.3 |  |
| O=[N+]([O-])C(=C(N1CCOCC1)N1CCOCC1)/C(Cl)=C(\Cl)Br | > 100 |  |
| [N-]=[N+]=NCCCCCC(=O)OC(C(=O)c1ccccc1)c1cccc(OCC(=O)NCCOCCOCCNC(=O)CCCC[C@@H]2SC[C@@H]3NC(=O)N[C@@H]32)c1 (some centres undefined) | > 100 | > 100 µM |
| O=c1c(Br)cc2nc3ccccc3sc-2c1Br | > 100 |  |
| CN(/N=C/c1cccc2cccnc12)c1ccc(Cl)cc1[N+](=O)[O-] | > 100 |  |
| COC(=O)C1(C#N)C(C)(C)N=C(c2ccccc2)C12CCCCC2 (centres undefined) | > 100 |  |
| N#CC(=N)c1ncn(-c2ccc(N)cc2)c1N | > 100 |  |
| NCC1OC(n2cnc3c(N)ncnc32)CC1O (centres undefined) | > 100 |  |
| CCOC(=O)N1CCC(=O)C(CNC23CC4CC(CC(C4)C2)C3)C1 (centres undefined) | > 100 |  |
| CN1C(=O)C2(C=CC(O)CC2)c2ccccc21 (centres undefined) | > 100 |  |
| CCC[CH2][Sn]1([CH2]CCC)[O]CC(CN(C)Cc2ccccc2)[O]1 (centres undefined) | 30.5 | 16.6 µM |

| SMILES | TGI [µM] | GI50 |
| --- | --- | --- |
| CC(C)=CCC[C@](C)(O)[C@H]1CC[C@]2(C)[C@@H]1CC[C@@H]1[C@@]3(C)CC/C(=N/O)C(C)(C)[C@@H]3CC[C@]12C | > 100 | 22.5 µM |
| NCCCCCCCn1c2c(c3ccccc3c1=O)C(=O)c1ccccc1-2 | 3.86 | 1.98 µM |
| S=C(Nc1ccc(-c2nc3ccccc3[nH]2)cc1)Nc1ccc(-c2nc3ccccc3[nH]2)cc1 | > 100 | > 100 µM |
| CC1=C(c2ccccc2)NC(=S)C(C)C(c2ccccc2)=N1 (centres undefined) | > 100 |  |
| O=C(O)CCSCc1ccccc1 | > 100 |  |
| O=Nc1ccc(NO)c2ccccc12 | 35.5 | 18.2 µM |
| O=C1C=CC(=Nc2cc(Br)c(O)c(Br)c2)C=C1 | > 100 | 60.7 µM |
| O=c1[nH]c(=S)[nH]c2c1CN(CCCN1CCOCC1)CN2 | > 100 |  |
| C/C(CC(=O)Nc1ccc(C)c(C)c1)=N\NC(N)=O | > 100 |  |
| COc1cccc(NC(=O)c2sc3nc(C)c(C(O)c4ccccc4)cc3c2N)c1 (centres undefined) | 22.2 | 0.763 µM |
| COc1ccc2c(=O)cc(C(Cl)(Cl)Cl)oc2c1 | 28.7 | 7.38 µM |
| S=C1CCSc2c(ccc3ccccc23)N1 | > 100 |  |
| Cc1cccc(C(C)(C)C)c1NC(=O)CC1C(=O)Nc2ccccc2S1(=O)=O (centres undefined) | 27.1 |  |
| CN(C)CCNC(=O)c1cccc(N(C)C(=O)c2ccccc2)c1[N+](=O)[O-] | > 100 |  |
| COc1ccc(/C(Cl)=C(\C=N/O)c2ccc(OC)c(OC)c2)cc1OC | > 100 |  |
| O=C1C2=C(CC3=C(C2)CS(=O)(=O)C3)C(=O)C2=C1CC1=C(C2)CS(=O)(=O)C1 | > 67.9 |  |
| COc1cc(/C=N/n2c(-c3ccccc3)nn(C(C)=O)c2=O)cc(OC)c1OC | > 62 |  |
| CCOC(=O)C(Cc1ccc(OC(=O)c2ccc(OC)cc2)cc1)NC(=O)C(F)(F)F (centres undefined) | > 100 |  |
| CC(=O)C1C(c2ccc(N(C)C)cc2)c2cc3c(cc2OC1(C)O)OCO3 (centres undefined) | > 100 |  |
| O=C(O)C1(C(=O)O)CCC1.[NH2-].[NH2-].[Pt+2] | > 250 | 204 µM and > 250 µM |
| CC(Nc1ccc(S(=O)(=O)N=C(N)N)cc1)c1c2ccccc2nc2ccccc12 (centres undefined) | > 100 |  |
| CN(Cc1ccccc1)c1ccc(CO)c(Cl)c1 | 66.5 | 9.25 µM |
| Fc1ccc2c(c1)c(-c1nc(-c3c[nH]c4ncccc34)cs1)cn2CCCCN1CCCCC1 | 2.99 | 1.61 µM |
